# Laboratory results taken from the supplement of paper PMC8728848.
# The other results are listed elsewhere or left out.
# B1: Pwp4 (Candida glabrata) (protein)
# chain: MGSSHHHHHHSSGLVPRGSHMASVGNPITVSNVCSFPKNWHRTAGFRALTARLGIGIQSDSYKELLNYPGTFQLTTQQSSTTKPNFQISGLVGNIYGLTIVPSYLLVELTGYFVPPVSGEYTFSLEGSDDAAIIFIANPSTFKCGHVEDWPTAYDNDVTVTESIHATRTIYMIEGVAYPIRIAYYNGLSLGKLQASFTDPEGVKRVDWNGYIWRYDSCDTCSYV
# Tests used:
# Assay in all cases: glycan array binding signal (z-score within array); higher = stronger binding
# Conditions in all cases: glycan notation: IUPAC condensed, linker removed
# [1] = target: Fuc(a1-2)Gal(b1-4)GlcNAc(b1-3)Gal(b1-4)GlcNAc(b1-3)Gal(b1-4)GlcNAc
# Outline: (§1)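 Arrays were curated from the Consortium for Functional Glycomics database, 3228 in total, and kept only where the protein sequence was available. Binding is expressed as a within-array Z-score. This score was averaged across arrays of the same protein sequence at different concentrations or buffers and across linkers, and negative values can be read as non-binding.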
# [2] = target: Fuc(a1-2)Gal(b1-4)GlcNAc(b1-3)GalNAc
# Outline: as §1
# [3] = target: Fuc(a1-2)Gal(b1-4)GlcNAc(b1-3)[Fuc(a1-2)Gal(b1-4)GlcNAc(b1-6)]GalNAc
# Outline: as §1
# [4] = target: Fuc(a1-2)Gal(b1-4)GlcNAc(b1-3)[Fuc(a1-3)[Gal(b1-4)]GlcNAc(b1-6)]Gal(b1-4)Glc
# Outline: as §1
# [5] = target: Fuc(a1-2)Gal(b1-4)GlcNAc(b1-6)GalNAc
# Outline: as §1
# [6] = target: Fuc(a1-2)Gal(b1-4)GlcNAc6S
# Outline: as §1
# [7] = target: Fuc(a1-2)Gal(b1-4)[Fuc(a1-3)]GlcNAc
# Outline: as §1
# [8] = target: Fuc(a1-2)Gal(b1-4)[Fuc(a1-3)]GlcNAc(b1-2)Man(a1-3)[Fuc(a1-2)Gal(b1-4)[Fuc(a1-3)]GlcNAc(b1-2)Man(a1-6)]Man(b1-4)GlcNAc(b1-4)[Fuc(a1-6)]GlcNAc
# Outline: as §1
# [9] = target: Fuc(a1-2)Gal(b1-4)[Fuc(a1-3)]GlcNAc(b1-2)[Fuc(a1-2)Gal(b1-4)[Fuc(a1-3)]GlcNAc(b1-4)]Man(a1-3)[Fuc(a1-2)Gal(b1-4)[Fuc(a1-3)]GlcNAc(b1-2)Man(a1-6)]Man(b1-4)GlcNAc(b1-4)GlcNAc
# Outline: as §1
# [10] = target: Fuc(a1-2)Gal(b1-4)[Fuc(a1-3)]GlcNAc(b1-3)Gal(b1-4)[Fuc(a1-3)]GlcNAc
# Outline: as §1
# [11] = target: Fuc(a1-2)Gal(b1-4)[Fuc(a1-3)]GlcNAc(b1-3)Gal(b1-4)[Fuc(a1-3)]GlcNAc(b1-3)Gal(b1-4)[Fuc(a1-3)]GlcNAc
# Outline: as §1
# [12] = target: Fuc(a1-2)Gal(b1-4)[Fuc(a1-3)]GlcNAc(b1-3)GalNAc
# Outline: as §1
# [13] = target: Fuc(a1-2)Gal(b1-4)[Fuc(a1-3)]GlcNAc(b1-3)[Neu5Ac(a2-6)Gal(b1-4)GlcNAc(b1-6)]Gal(b1-4)Glc
# Outline: as §1
# [14] = target: Fuc(a1-2)Gal3S(b1-4)GlcNAc
# Outline: as §1
# [15] = target: Fuc(a1-2)Gal6S(b1-3)GlcNAc
# Outline: as §1
# [16] = target: Fuc(a1-2)Gal6S(b1-3)GlcNAc6S
# Outline: as §1
# Fuc(a1-2)Gal6S(b1-4)Glc = target: Fuc(a1-2)Gal6S(b1-4)Glc
# Outline: as §1
# [17] = target: Fuc(a1-2)Gal6S(b1-4)Glc6S
# Outline: as §1
# Fuc(a1-2)[Gal(a1-3)]Gal = target: Fuc(a1-2)[Gal(a1-3)]Gal
# Outline: as §1
# [18] = target: Fuc(a1-2)[Gal(a1-3)]Gal(b1-3)GalNAc
# Outline: as §1
# [19] = target: Fuc(a1-2)[Gal(a1-3)]Gal(b1-3)GalNAc(b1-3)Gal(a1-4)Gal(b1-4)Glc
# Outline: as §1
# [20] = target: Fuc(a1-2)[Gal(a1-3)]Gal(b1-3)GlcNAc
# Outline: as §1
# [21] = target: Fuc(a1-2)[Gal(a1-3)]Gal(b1-3)GlcNAc(b1-2)Man(a1-3)[Fuc(a1-2)[Gal(a1-3)]Gal(b1-3)GlcNAc(b1-2)Man(a1-6)]Man(b1-4)GlcNAc(b1-4)GlcNAc
# Outline: as §1
# [22] = target: Fuc(a1-2)[Gal(a1-3)]Gal(b1-3)GlcNAc(b1-2)Man(a1-3)[Fuc(a1-2)[Gal(a1-3)]Gal(b1-3)GlcNAc(b1-2)Man(a1-6)]Man(b1-4)GlcNAc(b1-4)[Fuc(a1-6)]GlcNAc
# Outline: as §1
# [23] = target: Fuc(a1-2)[Gal(a1-3)]Gal(b1-3)GlcNAc(b1-3)GalNAc
# Outline: as §1
# [24] = target: Fuc(a1-2)[Gal(a1-3)]Gal(b1-3)GlcNAc(b1-6)GalNAc
# Outline: as §1
# [25] = target: Fuc(a1-2)[Gal(a1-3)]Gal(b1-4)Glc
# Outline: as §1
# [26] = target: Fuc(a1-2)[Gal(a1-3)]Gal(b1-4)GlcNAc
# Outline: as §1
# [27] = target: Fuc(a1-2)[Gal(a1-3)]Gal(b1-4)GlcNAc(b1-2)Man
# Outline: as §1
# [28] = target: Fuc(a1-2)[Gal(a1-3)]Gal(b1-4)GlcNAc(b1-2)Man(a1-3)[Fuc(a1-2)[Gal(a1-3)]Gal(b1-4)GlcNAc(b1-2)Man(a1-6)]Man(b1-4)GlcNAc(b1-4)GlcNAc
# Outline: as §1
# [29] = target: Fuc(a1-2)[Gal(a1-3)]Gal(b1-4)GlcNAc(b1-2)Man(a1-3)[Fuc(a1-2)[Gal(a1-3)]Gal(b1-4)GlcNAc(b1-2)Man(a1-6)]Man(b1-4)GlcNAc(b1-4)[Fuc(a1-6)]GlcNAc
# Outline: as §1
# [30] = target: Fuc(a1-2)[Gal(a1-3)]Gal(b1-4)GlcNAc(b1-3)GalNAc
# Outline: as §1
# [31] = target: Fuc(a1-2)[Gal(a1-3)]Gal(b1-4)GlcNAc(b1-3)[Fuc(a1-2)[Gal(a1-3)]Gal(b1-4)GlcNAc(b1-6)]GalNAc
# Outline: as §1
# [32] = target: Fuc(a1-2)[Gal(a1-3)]Gal(b1-4)GlcNAc(b1-6)GalNAc
# Outline: as §1
# [33] = target: Fuc(a1-2)[Gal(a1-3)]Gal(b1-4)[Fuc(a1-3)]Glc
# Outline: as §1
# [34] = target: Fuc(a1-2)[Gal(a1-3)]Gal(b1-4)[Fuc(a1-3)]GlcNAc
# Outline: as §1
# [35] = target: Fuc(a1-2)[Gal(a1-3)]Gal(b1-4)[Fuc(a1-3)]GlcNAc(b1-3)GalNAc
# Outline: as §1
# [36] = target: Fuc(a1-2)[Gal(a1-4)]Gal(b1-4)GlcNAc
# Outline: as §1
# [37] = target: Fuc(a1-2)[GalNAc(a1-3)]Gal
# Outline: as §1
# [38] = target: Fuc(a1-2)[GalNAc(a1-3)]Gal(b1-3)GalNAc(a1-3)[Fuc(a1-2)]Gal(b1-4)GlcNAc
# Outline: as §1
# [39] = target: Fuc(a1-2)[GalNAc(a1-3)]Gal(b1-3)GalNAc(b1-3)Gal(a1-4)Gal(b1-4)Glc
# Outline: as §1
# [40] = target: Fuc(a1-2)[GalNAc(a1-3)]Gal(b1-3)GlcNAc
# Outline: as §1
# [41] = target: Fuc(a1-2)[GalNAc(a1-3)]Gal(b1-3)GlcNAc(b1-2)Man(a1-3)[Fuc(a1-2)[GalNAc(a1-3)]Gal(b1-3)GlcNAc(b1-2)Man(a1-6)]Man(b1-4)GlcNAc(b1-4)GlcNAc
# Outline: as §1
# [42] = target: Fuc(a1-2)[GalNAc(a1-3)]Gal(b1-3)GlcNAc(b1-2)Man(a1-3)[Fuc(a1-2)[GalNAc(a1-3)]Gal(b1-3)GlcNAc(b1-2)Man(a1-6)]Man(b1-4)GlcNAc(b1-4)[Fuc(a1-6)]GlcNAc
# Outline: as §1
# [43] = target: Fuc(a1-2)[GalNAc(a1-3)]Gal(b1-3)GlcNAc(b1-3)GalNAc
# Outline: as §1
binder,measurement,setting,value
B1,glycan array binding signal (z-score),[1],-0.257
same,glycan array binding signal (z-score),[2],-0.404
same,glycan array binding signal (z-score),[3],-0.48
same,glycan array binding signal (z-score),[4],0.55
same,glycan array binding signal (z-score),[5],-0.365
same,glycan array binding signal (z-score),[6],-0.4
same,glycan array binding signal (z-score),[7],-0.67
same,glycan array binding signal (z-score),[8],0.141
same,glycan array binding signal (z-score),[9],-0.097
same,glycan array binding signal (z-score),[10],0.356
same,glycan array binding signal (z-score),[11],1.61
same,glycan array binding signal (z-score),[12],0.139
same,glycan array binding signal (z-score),[13],-0.578
same,glycan array binding signal (z-score),[14],0.895
same,glycan array binding signal (z-score),[15],-0.52
same,glycan array binding signal (z-score),[16],0.072
same,glycan array binding signal (z-score),Fuc(a1-2)Gal6S(b1-4)Glc,-0.528
same,glycan array binding signal (z-score),[17],0.675
same,glycan array binding signal (z-score),Fuc(a1-2)[Gal(a1-3)]Gal,-0.547
same,glycan array binding signal (z-score),[18],0.234
same,glycan array binding signal (z-score),[19],-0.516
same,glycan array binding signal (z-score),[20],-0.366
same,glycan array binding signal (z-score),[21],-0.259
same,glycan array binding signal (z-score),[22],-0.365
same,glycan array binding signal (z-score),[23],-0.307
same,glycan array binding signal (z-score),[24],1.1
same,glycan array binding signal (z-score),[25],-0.323
same,glycan array binding signal (z-score),[26],-0.522
same,glycan array binding signal (z-score),[27],-0.068
same,glycan array binding signal (z-score),[28],-0.161
same,glycan array binding signal (z-score),[29],-0.415
same,glycan array binding signal (z-score),[30],0.305
same,glycan array binding signal (z-score),[31],-0.423
same,glycan array binding signal (z-score),[32],-0.436
same,glycan array binding signal (z-score),[33],-0.509
same,glycan array binding signal (z-score),[34],0.205
same,glycan array binding signal (z-score),[35],1.93
same,glycan array binding signal (z-score),[36],-0.43
same,glycan array binding signal (z-score),[37],-0.541
same,glycan array binding signal (z-score),[38],-0.484
same,glycan array binding signal (z-score),[39],-0.333
same,glycan array binding signal (z-score),[40],-0.435
same,glycan array binding signal (z-score),[41],-0.315
same,glycan array binding signal (z-score),[42],-0.763
same,glycan array binding signal (z-score),[43],-0.221
